# In all, about 420,000 compounds went through this assay and about 50,000 (12%) were called active. This list was built around the results that the source calls inconclusive (neither active nor inactive); the mix of calls is not that of the screen. Calls come from the whole dose curve; as a rule, active = well fitted inhibition curve with a large enough effect; inconclusive = small, poorly fitted or top-dose-only effect; inactive = flat fitted curve, though single readings scatter. Potencies of inconclusive entries are left out as doubtful fits.
# Assay: qHTS for Inhibitors of human tyrosyl-DNA phosphodiesterase 1 (TDP1): qHTS in cells in presence of CPT; note: nearly all actives have a fitted effect of over 55% in size
# Details: chicken DT40 Tdp1-/-;hTDP1 cells + 20 nM CPT, ATP luminescence, 48 h; activity change, negative = growth inhibition: at 46.2 µM (top of the series)
# Method in brief: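 Chicken DT40 Tdp1-/- cells complemented with human TDP1, 400 cells/well, exposed to compounds plus 20 nM camptothecin for at least 48 h at 37 C; viability read as ATP content by CellTiter-Glo luminescence.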
# % is set by controls: 0 for no effect and ±100 for the full control effect; potency is the fitted concentration of half-maximal effect; tags give direction and shape of the fitted curve.
SMILES,Potency,"activity change, negative = growth inhibition"
CC(C)C[C@H]1CNC(=S)N1C[C@H]1CCCN1C[C@H](Cc1ccc(O)cc1)N1C[C@H](Cc2ccc(O)cc2)N(CCc2ccccc2)C1=S,"inconclusive [inhibitor, single point]",–
O=C(CSc1nnc(-c2cc(-c3cccs3)nc3ccccc23)o1)NC1CCCCC1,"inconclusive [inhibitor, single point]",–
CCn1nc(C)cc1C(=O)N1CCCC(Nc2ccc(F)c(F)c2)C1 (configuration not stated),inactive,–
O=C(Cc1ccc(Br)cc1)N1CCN(C(=O)c2ccccc2)CC1,inactive,–
CCCN1C(=S)SC(C)(C)C1/[N+]([O-])=C/c1ccc(S(=O)(=O)NC)cc1 (configuration not stated),inactive,–
C/C(=N/N1CCN(c2ccccc2)CC1)c1cccc([N+](=O)[O-])c1,inactive,–
COc1ccc(-c2cc(C(F)(F)F)nc(S(C)(=O)=O)n2)cc1OC,active: 2.06 µM,–
O=C(/C=C/c1cccs1)N1CCC2(CC1)Oc1ccc(F)cc1C(=O)C21CC(c2ccccc2)=NO1 (configuration not stated),"inconclusive [inhibitor, single point]",–
S=C(NCc1ccc2c(c1)OCO2)Nc1ccc(-c2nc3ccccc3[nH]2)cc1,active: 20.6 µM,–
Cc1ccc2nc(-c3ccccn3)cc(C(=O)NC(C)C(C)(C)C)c2c1 (configuration not stated),"inconclusive [inhibitor, single point]",–
COc1ccc(NC(=O)CCc2nc3cccnc3n2-c2ccccc2)c(OC)c1,"inconclusive [inhibitor, single point]",–
COc1ccc(N2C(=O)C(CC(=O)Nc3ccc(Cl)cc3)N(Cc3ccc4c(c3)OCO4)C2=O)cc1 (configuration not stated),"inconclusive [inhibitor, single point]",–
O=C(c1ccco1)N1CCN(S(=O)(=O)c2ccc(Br)s2)CC1,"inconclusive [inhibitor, partial curve]",–
COc1ccccc1CNC(=O)CCNS(=O)(=O)/C=C/c1ccc(C)cc1,inactive,–
N#Cc1cccc(CN2CCCN(Cc3ccc(F)cc3)S2(=O)=O)c1,inactive,–
NC(=S)NN=C1C2CC3CC(C2)CC1C3,"inconclusive [inhibitor, single point]",–
CCCCCn1c(SCC2CCCO2)nc2cc(C(=O)N3CCC(C(N)=O)CC3)ccc2c1=O (configuration not stated),"inconclusive [inhibitor, partial curve, poor fit]",–
COc1ccc([C@H]2CC(=O)C=C(c3cccc4c3Oc3ccccc3S4)C2)cc1,"inconclusive [inhibitor, single point]",–
C#CCSc1nccc(-c2nn(-c3ccc(C)cc3)ccc2=O)n1,"inconclusive [inhibitor, single point]",–
O=C(NC(=S)Nc1ccc(N2CCCCC2)cc1)c1ccc2c(c1)OCCO2,"inconclusive [inhibitor, single point]",–
CCOc1ccc(NC(=O)c2ccc3c(c2)N(Cc2ccc(F)cc2)C(=O)CS3=O)cc1 (configuration not stated),"inconclusive [inhibitor, single point]",–
Cc1ccc(C)c(NC(=O)CN(C)C(=O)c2oc3c(Cl)cccc3c2C)c1,"inconclusive [inhibitor, single point]",–
CC1(C)CC(=O)c2sc(NC(=O)c3cccs3)nc2C1,"inconclusive [inhibitor, partial curve]",–
Cc1ccc(S(=O)(=O)N2CCN(C(=O)c3cc(-c4cccs4)nn3-c3ccccc3)CC2)cc1,active: 13 µM,–

SMILES,Potency,"activity change, negative = growth inhibition"
Cc1ccnc(SCC(=O)N2CCN(c3cccc(Cl)c3)CC2)n1,inactive,–
Cn1c(C(=O)NCCCN2CCN(c3cccc(Cl)c3)CC2)cc2c(=O)n(C)c3ccccc3c21,"inconclusive [inhibitor, single point]",–
Nc1nc2c(nc(Br)n2[C@@H]2O[C@H]3COP(=O)(O)O[C@H]3[C@@H]2O)c(=O)[nH]1,inactive,–
COC(=O)c1cc(C(=O)OC)cc(N2C(=O)CC(N3CCN(c4ccccc4)CC3)C2=O)c1 (configuration not stated),"inconclusive [inhibitor, single point]",–
Cc1cccc(-c2nc(SCc3cc(=O)c4cccc(F)c4[nH]3)n[nH]2)c1,"inconclusive [inhibitor, partial curve]",–
CCCCOc1ccc(OCCNC(=O)C2CCCN2C(=O)Nc2ccccc2)cc1 (configuration not stated),"inconclusive [inhibitor, partial curve]",–
COc1cc(C(=O)Nc2ccccc2OCc2cc(=O)n3c(C)csc3n2)cc(OC)c1OC,inactive,–
Cc1[nH]c2ccccc2c1C(=O)C(=O)NCc1ccncc1,inactive,–
CCN(CC)c1ccc(C(=O)Nc2cccc(F)c2)cc1,"inconclusive [inhibitor, single point]",–
Cc1cc(C)c(S(=O)(=O)c2cccc(Br)c2C)c(=O)[nH]1,–,inconclusive: -1.43% [inhibitor]
CCCc1cc(=O)[nH]c(SCC(=O)Nc2sc3c(c2C(N)=O)CCCC3)n1,inactive,–
COc1ccccc1-c1ccc(SCC(=O)NC2CCCCC2)nn1,inactive,–
Cc1ccccc1/[N+]([O-])=C/c1ccncc1,"inconclusive [inhibitor, single point]",–
Cc1c(Cl)cccc1NC(=O)N1CCN(C(=O)c2ccco2)CC1,"inconclusive [inhibitor, single point]",–
O=C(NCC1CCCCC1)C12CN(Cc3ccccc3)CC1C(c1cccc([N+](=O)[O-])c1)=NO2 (configuration not stated),"inconclusive [inhibitor, single point]",–
Cc1ccnc(NCc2ccc(Br)cc2)c1,"inconclusive [inhibitor, partial curve]",–
CCCNC(=O)Nc1cccc(C(=O)OC)c1,inactive,–
COc1ccccc1C1CC(c2ccc(F)cc2)Nc2ncnn21 (configuration not stated),active: 7.31 µM,–
O=C1Nc2ccc(S(=O)(=O)N3CCCC3)c3cccc1c23,"inconclusive [inhibitor, single point]",–
COc1cccc(CNc2ncnc3cc(Cl)ccc23)c1,"inconclusive [inhibitor, partial curve, poor fit]",–
O=C1Cc2c(-c3ccccc3)cc(-c3cccc(Cl)c3)nc2-c2ccccc2N1,active: 20.6 µM,–
CC(C)c1ccccc1OCCNC(=O)c1cccnc1,active: 18.4 µM,–
CC1(C(=O)Nc2cccnc2)Cc2c(-c3ccccc3)ccnc2O1 (configuration not stated),"inconclusive [inhibitor, partial curve]",–
COc1cccc(NC(=O)Nc2ccc3c(c2)N(C)C(=O)CS3)c1,"inconclusive [inhibitor, single point]",–

SMILES,Potency,"activity change, negative = growth inhibition"
C=CCOc1ccc(C2NC(=O)NC(C)=C2C(=O)OC)cc1 (configuration not stated),"inconclusive [inhibitor, single point]",–
O=C(c1cccs1)N1C[C@@H](O)[C@H](n2cc(-c3ccc(F)cc3)nn2)C[C@@H]1c1ccccc1,active: 18.4 µM,–
CC(Sc1ccc2nnc(-c3ccc(F)cc3)n2n1)C(=O)O (configuration not stated),inactive,–
Clc1ccc(Nc2nc(NCc3ccco3)nc3nccnc23)cc1,inactive,–
O=C(COC(=O)c1cccc(C(F)(F)F)c1)NC(=O)NC1CCCC1,"inconclusive [inhibitor, partial curve, poor fit]",–
Cc1ccc2nc(N3CCN(c4ccccc4F)CC3)c3nnnn3c2c1,inactive,–
Cc1ccc(-n2cnc3cc(C(=O)NCc4ccccc4Cl)ccc32)c(C)c1,active: 23.1 µM,–
Cc1cccc(N2C(=O)C=CC2=O)c1,active: 2.59 µM,–
O=C(O)C(Cc1cc(I)c(O)c(I)c1)c1ccccc1 (configuration not stated),inactive,–
COc1ccc(N2C(=S)N=C(Nc3ccccc3)C23CCCCC3)cc1,–,inconclusive: -30.3% [inhibitor]
CCCCN(Cc1ccco1)C(=O)Cn1ncc2c([nH]c3ccccc32)c1=O,"inconclusive [inhibitor, single point]",–
O=C(COc1ccc(S(=O)(=O)N2CCOCC2)cc1)N1CCN(c2ccccc2)CC1,"inconclusive [inhibitor, single point]",–
CC(CO)N1CCS(=O)(=O)CC1 (configuration not stated),inactive,–
CCOC(=O)c1cc(NC(=O)Nc2ccc(Br)cc2)c(C)nc1C,"inconclusive [inhibitor, single point]",–
Cc1cccc(Cn2cccc2CNS(=O)(=O)c2ccc(C)c(C)c2)c1,"inconclusive [inhibitor, single point]",–
CS(=O)(=O)c1ccccc1NC(=O)COc1ccccc1C(=O)Nc1ccccc1,active: 11.2 µM,–
O=C(c1[nH]c(C(F)(F)F)nc1-c1ccccc1)N1CCN(c2cccc(C(F)(F)F)n2)CC1,active: 4.61 µM,–
OC[C@@H]1[C@@H](c2ccccc2)C(c2ccc(F)cc2)=NN1c1ccccc1,"inconclusive [inhibitor, single point]",–
COc1cccc(CN(C)CC(=O)NCc2ccccc2Cl)c1OC,inactive,–
CC(C)C[C@@H](CN=[N+]=[N-])N1CCN(Cc2ccccc2)CCC1=O,"inconclusive [inhibitor, single point]",–
Cc1ccccc1-c1ocnc1C(=O)Nc1ccccc1NC(=O)c1ccccn1,"inconclusive [inhibitor, single point]",–
COc1ccccc1OCCCCn1ncc2ccc(OC)c(OC)c2c1=O,"inconclusive [inhibitor, single point]",–
CCn1c(SCC(=O)N2CCN(c3ccc(F)cc3)CC2)nc2ccccc2c1=O,active: 20.6 µM,–
Cc1ccc(C)c(NC(=O)c2cc(-c3cc(C)c(C)cc3O)n[nH]2)c1,"inconclusive [inhibitor, partial curve]",–
